Test results as given in the supplement of paper PMC5499739.
Over roughly 16,000 sequences, “Z-score” has its median near -0.37; the highest 2% begin near 3.1. The list shows a part of the results.

Test system: RBM10 RRM1-ZnF-RRM2 (GST-tagged construct)
Assay: RNAcompete 7-mer binding Z-score; higher = stronger binding preference
Outline: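 GST-tagged RBM10 constructs (20 pmol) were mixed with a designed pool of 241 399 RNAs up to 41 nt (1.5 nmol), transcribed from microarray-derived DNA templates. Mixing was in 1 ml Hepes pH 7.8 buffer with KCl, NaCl, glycerol, DTT, BSA and glutathione Sepharose beads. Binding ran 30 min at 4°C, followed by four 2-min washes at 4°C, and bound RNA was identified by microarray hybridisation. Each heptamer motif received a one-sided Z-score for enrichment across probes containing it.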

Row | Sequence | RNAcompete 7-mer binding Z-score
1 | UUCUUUU | -0.763
2 | CAAAGUC | -0.337
3 | CGUUUGC | -0.766
4 | UGACACU | -0.675
5 | UGCACUA | -0.57
6 | UGGACCU | -0.0743
7 | CCGCUUU | -1
8 | GGGACUA | 1.33
9 | GCGAACG | 1.05
10 | UUAGCGC | -0.617
11 | CGCGCGG | 1.01
12 | CCUUCAA | -0.814
13 | AUCUUUA | -0.828
14 | UACGUAC | -0.227
15 | CGACGGA | 0.949
16 | CUCCCGC | -0.763
17 | GGCCUAA | -0.078
18 | GACCUUC | -1.01
19 | UACGUCG | -0.202
20 | UAGGCAC | 0.417
21 | CGACCGU | -0.592
22 | GUCGCCG | -0.34
23 | AGUUGCA | 0.144

Row | Sequence | RNAcompete 7-mer binding Z-score
24 | GGCUUCC | -0.548
25 | UUGGGAC | 1.75
26 | GGGUCAC | 1.67
27 | CUGGCAU | -0.617
28 | GCCCGGU | -0.486
29 | GAUUUGU | -0.296
30 | CAUCAGC | -0.719
31 | UCUGAGU | -0.497
32 | CCAAUGC | -0.544
33 | AGUCGGC | 0.301
34 | AGAGACC | -0.774
35 | GCGUAGC | 0.264
36 | CGGAUCU | -0.457
37 | CUUGUCA | -0.93
38 | UCAAAUA | -0.653
39 | CUGAAAU | -0.632
40 | CGAUGAG | 0.752
41 | AACCUAA | -0.734
42 | UCCCUGC | -0.741
43 | ACACCGA | -0.515
44 | GCGGCAG | 0.887
45 | UUGUCUA | -0.694
46 | GUACCCC | -0.242

Row | Sequence | RNAcompete 7-mer binding Z-score
47 | UGAUGUC | -0.664
48 | GGCCUUG | -0.256
49 | AGCGAUA | 0.243
50 | UGCAUAC | -0.362
51 | UUUUCAU | -0.457
52 | UUGCUUU | -0.694
53 | AGCUGUU | -0.814
54 | AUCUUUG | -0.846
55 | AAGAUGG | 2.68
56 | CUCCGAU | -0.832
57 | AUAUAAA | -0.42
58 | ACCACGU | -0.431
59 | AGCAAAA | -0.0197
60 | CAAUUAC | -0.675
61 | CUCGCCA | -0.726
62 | UUGUACC | -0.697
63 | GGGAGCA | 2.48
64 | GUUUUAA | -0.377
65 | GGUUUCG | 1.12
66 | GUGCUGU | -0.271
67 | CCCCCGU | -0.406
68 | UUCGACA | -0.595
69 | GGUCGUA | 0.567

Row | Sequence | RNAcompete 7-mer binding Z-score
70 | AACGAAG | 0.345
71 | CUAUCCA | -0.788
72 | GUACCCG | -0.373
73 | CUUAAUG | -0.679
74 | UUCGGCU | -0.61
75 | CUCUACU | -0.806
76 | ACUACUA | -0.617
77 | ACCGUAG | -0.147
78 | CCAUUGG | -0.53
79 | UGCAAAC | -0.293
80 | GUUGCGU | 0.199
81 | GUCUGAG | -0.0925
82 | GUCUCAU | -0.679
83 | GUUGUCC | -0.482
84 | AUCUUAG | -0.592
85 | GCGUUAG | 0.352
86 | AAUUUAC | -0.701
87 | GUGGUAA | 1.81
88 | UAGCUCG | -0.213
89 | CAUCCUA | -0.897
90 | GGUGUUG | 1.72
91 | AGGAUAC | 0.811
92 | GAGGGGG | 2.83

Row | Sequence | RNAcompete 7-mer binding Z-score
93 | GCACGCU | -0.566
94 | GGGUUGA | 3.53
95 | CCACGCG | -0.584
96 | UACGACA | -0.213
97 | UAUCCCG | -0.81
98 | AUCCGGG | 0.632
99 | GCCCCGG | -0.122
100 | UGUGGUG | 1.57
101 | CUAUGCC | -0.897
102 | UAAUGCA | -0.333
103 | ACCUAGG | -0.125
104 | CUCGAUC | -0.843
105 | ACUAAAU | -0.515
106 | CCGUACA | -0.661
107 | AGCCACA | -0.675
108 | UACUGGA | 0.141
109 | CCUCGCG | -0.701
110 | GCAUUAC | -0.209
111 | AAAAGCG | 0.629
112 | AAUUCGA | -0.497
113 | GUACUGU | -0.238
114 | AGGGAGU | 3.13
115 | GGUGCUC | 0.33

Row | Sequence | RNAcompete 7-mer binding Z-score
116 | ACCUUAG | -0.697
117 | GCAUAUA | -0.0561
118 | GGUGCGU | 1.28
119 | UUCUAAA | -0.744
120 | GUGCAGA | 0.487
121 | GUUUUGA | -0.26
122 | GCCACUC | -0.712
123 | GUGUAUU | -0.0925
124 | UCGUGGC | 0.188
125 | AUGGUCA | 1.17
126 | CGACAUA | -0.537
127 | UGAGAGG | 1.8
128 | CACCGCG | -0.147
129 | ACCAAUC | -0.675
130 | UUUGUGC | -0.73
131 | AAGUUAU | -0.38
132 | UUUAUCU | -0.715
133 | UCAUCCG | -0.613
134 | AGUUACA | -0.0197
135 | GCUCACG | -0.457
136 | CCACUGG | -0.384
137 | AUGUGGA | 2.02
138 | GAGCGAC | 0.177

Row | Sequence | RNAcompete 7-mer binding Z-score
139 | ACGGGAC | 2.19
140 | UACCUCA | -0.672
141 | GCCAAUC | -0.351
142 | CUAAUAA | -0.544
143 | GGUCGCC | -0.322
144 | UAACACG | -0.307
145 | CUUAUAC | -0.795
146 | GGGUCGU | 2
147 | UGGUGGU | 2.37
148 | GCACUCC | -0.602
149 | GUUUGAU | -0.326
150 | GGCAAAA | 0.964
151 | UUAGUUG | -0.249
152 | GAAUGCC | -0.311
153 | UUACUAU | -0.774
154 | UUGAGCG | 0.239
155 | UCUGAUA | -0.61
156 | UAAUCUG | -0.868
157 | UUACUGG | 0.0204
158 | CGGACAA | 0.403
159 | GUUCGAG | 0.0386
160 | GACGUUU | -0.704
161 | UAUACUA | -0.544

Row | Sequence | RNAcompete 7-mer binding Z-score
162 | AUUAGAG | 0.388
163 | GAGAGCA | 0.465
164 | UAUUUCU | -0.763
165 | AUUCCCU | -0.817
166 | UCACAGU | -0.329
167 | GAUACUA | -0.246
168 | AUUGCUA | -0.511
169 | UGACAGU | -0.22
170 | CAGCUGG | 0.275
171 | GAGCGAG | 3.3
172 | CAGGAUG | 1.64
173 | UAUCAGG | 0.658
174 | CGGCGUA | 0.148
175 | UGUGCCG | -0.344
176 | GCUCUCU | -0.701
177 | CGAUCUU | -0.85
178 | UAAAGUA | -0.209
179 | GUGCCUU | -0.661
180 | CAGGCGU | 0.931
181 | AUAGAUU | -0.205
182 | UGUGCAA | -0.078
183 | CACCUCA | -0.664
184 | AUGUGCU | -0.522
